Laboratory results taken from the supplement of paper PMC11417369.
± gives the standard deviation of the averaged measurements. Some of the results follow.

Tested on: PfAP2-LT AP2 domain (GST-tagged)
Experiment: gcPBM binding intensity (ln(normalized median fluorescence intensity)); higher = stronger DNA binding
Method in brief: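 An Agilent 4 × 180k array of primer-extended double-stranded 36-bp intergenic genomic probes, with negative controls, was incubated for 1 h with GST-tagged P. falciparum DNA-binding domains expressed in E. coli. Alexa488 anti-GST antibody detected bound protein, scanned at 488 nm. Binding intensity is the highest Masliner-normalised natural-log median intensity across replicate spots of either probe orientation.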

Sequence	gcPBM binding intensity (ln)
AATAAATAAAAAACATGTACAAATATAATATAGCAT [XGTACX_site6429]	9.22 ± 0.36
TATATATATATGTGTATACACACCTGATAAAGGTAT [CACACA_site2653]	9.56 ± 0.25
AAGATTTGAAAAAATACACACAATAAAAAAATAAAA [CACACA_site3281]	9.03 ± 0.7
AAAAAAAAAAAGCACACACACATATGTGTATTTATA [CACACA_site6578]	9.63 ± 0.23
ACAAAATATACAAAATGTACAAAATTTACAAAATGT [XGTACX_site3544]	8.93 ± 0.38
TACTAGCAAATACATACACACACACCCATATACATA [CACACA_site9163]	9.78 ± 0.23
GATATTGAGAAAGGGTGTACAAGATATTATACTATA [XGTACX_site3598]	8.79 ± 0.43
AATAGAAAAAAATAAGTGCATTTTGGTATTCATCAT [GTGCAC_site9614]	8.74 ± 0.5
AAATTTATATTCATTTGTACGTAATTTAAATTATAC [XGTACX_site5870]	8.77 ± 0.33
ACATAAATAATAAAAACACACATATGTACATATATA [CACACA_site1913]	9.14 ± 0.39
TTTTATGTAATTATTTGTACATATGCCTCTTAAACT [XGTACX_site748]	8.71 ± 0.49
TTATATAGGCAGATGGTGCATCTATTTATAAGCAAC	8.65 ± 0.42
AAAAATTAAAAGAAAATACACACCTGTGGGTGCTTA [CACACA_site1988]	8.54 ± 0.47
TGTATGTATTTTCAATGTACATAAAAAAAAAAAAAA [XGTACX_site4397]	8.48 ± 0.28
TATTTTTTTTGTTAGGTGCATTTACATTTATTTTTA	8.77 ± 0.52
AAAAAAAAAAGTTCTACACACACAAAAAAATATTTT [CACACA_site8725]	9.14 ± 0.44
ATATGAGAGAATAAAACACACAAAAAAAAAAAAAAA [CACACA_site2865]	8.9 ± 0.4
GTAGCCTTTCTTTATAAAGGCAAACAAACAAAAAAT [CACACA_negctrl_site1491]	8.49 ± 0.33
TAATAATCAAGTTAACGTACAAAATCATCTATAGAA [XGTACX_site5921]	8.8 ± 0.49
TTTTTAAAACATATCACACATATATATATATATATA [CACACA_site5991]	9.36 ± 0.21
TATTTTTATAAAAATCGTACAAGTGATCCAATTTTT [XGTACX_site4402]	8.54 ± 0.42
CCGTATTCAAAAAGGAGTACACAATTATATGTTATA [XGTACX_site641]	8.69 ± 0.43
TATAATATAATTAAAAGTACTTAAAAAAGAATGAAA [XGTACX_site1157]	8.61 ± 0.53

Sequence	gcPBM binding intensity (ln)
TGTTTATATAATATTCTACACACCAACAACAAACAT [CACACA_site8087]	9.07 ± 0.29
CGCGCACCCAGACACACACACACACCGATATATATA [CACACA_site8687]	10.1 ± 0.48
TAAATTATCTTTTTATGTACTTATTTTTATTATTTT [XGTACX_site3158]	8.73 ± 0.55
AAAAAAAAAAAAAGTACACACTTATAAAATATTATG [CACACA_site4639]	8.76 ± 0.48
TATTTTCAACATATTTGTACATATTTTATATTTTAA [XGTACX_site101]	8.68 ± 0.38
ATTATATTAGGTAATCAGTTAAATGTTTCCTTTTTA [CACACA_negctrl_site1229]	8.56 ± 0.42
AAAATATGGATTCATGATATTAAATTTAATTTAATG [XGTACX_negctrl_site214]	8.38 ± 0.54
ATATAAATAATGTTGACACACACAATAATCTTATTA [CACACA_site9197]	9 ± 0.42
GTTATACTCATATATACACACATATGTAAATATATA [CACACA_site5764]	8.9 ± 0.33
ATACGAAAAAAAAAAAGTACACAAAAATATCTACAT [XGTACX_site2051]	8.88 ± 0.53
TTTATATAATTTTGTGGTACTTATGTGTGTATATTA [XGTACX_site706]	9.14 ± 0.44
ATTTATTATATATACACACATACATATATATATATA [CACACA_site2159]	9.245 ± 0.0071
ATAACAAAATAAAACACACACACAAATGTACTTATA [CACACA_site8768]	9.57 ± 0.18
AAAAAATTCTGGTACTGTACACATTTTTTTAAATTT [XGTACX_site6904]	8.73 ± 0.43
TGCTTTTATTTCTTCACACATATGTAAAAAAAAGAA [CACACA_site5906]	8.45 ± 0.54
ATTATGATTTTATAGAACTGAACATTTACATTAAAT [GTGCAC_negctrl_site192]	8.6 ± 0.46
TGCATACTAGCCAATTGTACATAATTTTATTTTAAA [XGTACX_site513]	8.46 ± 0.48
AAAAGGAACAGACACACACACATATATATATATATA [CACACA_site3587]	10.3 ± 0.29
AAAATAAATCTGAATGGGGTATAATATATCTTTGTT [CACACA_negctrl_site744]	8.86 ± 0.31
TATTATTATTATGGTAGTACATGTAGGTTATTAAAA [XGTACX_site5742]	8.86 ± 0.38
AATTGGGAAGGACATGCATGAGAAATTAATATTGCA [TGCATGCA_site424]	9 ± 0.48
ATATTTATAAATTGCACACAAATAATAACATTCTAT [CACACA_site2357]	8.88 ± 0.34
ACTTTGCTCTACAATGCATGCTCATTTAACAAGGCA [TGCATGCA_site676]	8.8 ± 0.38

Sequence	gcPBM binding intensity (ln)
ATATCTACTATACAACTGAGTGTAGAAAAATTAAAC [CACACA_negctrl_site1211]	9 ± 0.4
TATATTAAATGAAACAAACACACATAGCCTTTAAAT [CACACA_site1559]	8.96 ± 0.32
AACATACACATATACACACACACATATATACCTATA [CACACA_site6643]	10 ± 0.31
AAGAAAAAAAAAATTACACACTGCGGACATACACAA [CACACA_site4838]	9.12 ± 0.42
TCAATTTTACTTGTTTGTACATAAAATAATAAGGTT [XGTACX_site3732]	8.46 ± 0.38
ATATTTTGTTTTTGTTCTTTTTTTTTCTTTTTTTTT [CACACA_negctrl_site1342]	8.77 ± 0.59
TATGTAATGTTTACAACACACAAATTATAAATACAA [CACACA_site1771]	8.83 ± 0.45
ATATATATATATATATGTACATATTTTTATTTATAC [XGTACX_site2858]	9.52 ± 0.085
TATTTATATGTATATACATGCACATATATATGAAAC [TGCATGCA_site1005]	8.84 ± 0.36
CTATTTTATATGTGCACACATATACTCAGACAAATA [CACACA_site4761]	9.26 ± 0.32
ACCTATATACTAAATGCACACTTATATATTTATATA [CACACA_site5371]	9.1 ± 0.4
AAAAAAAAAAAAAAATGTACATATATATAAATATAT [XGTACX_site6768]	8.56 ± 0.54
TGTATAAATATATGCACACATATATATATTTATATA [CACACA_site3473]	8.85 ± 0.26
GAGAAAAAAAAAAAAAAACACACGGTACATTCAAAG [CACACA_site1767]	8.82 ± 0.49
TCAATAAATGAATATGCATGCACGCTCTTTAGAGAT [TGCATGCA_site553]	9.05 ± 0.25
AAATTAATACATTATTGTACTTTTCATGTGCAGAAA [XGTACX_site8284]	8.6 ± 0.42
TAATTCGCATTTTATACACACATTCGAACCTTTTTT [CACACA_site7549]	9.18 ± 0.43
CATATTACATTAAATTGTACATATATATATATATAT [XGTACX_site3295]	9.53 ± 0.3
CGGATGAATATATATGCACACATCTTTTGTAAAAAT [CACACA_site3190]	9.15 ± 0.42
TATATATATATATATTGTACATTTACCAAATTGTGT [XGTACX_site5791]	9.39 ± 0.4
AATGTGCTCGCTATTACACACTCATTGGGATAAACT [CACACA_site7043]	8.98 ± 0.41
ATATAATATATATATTGTACATATATTTATAAGCAT [XGTACX_site3726]	8.77 ± 0.35
TTTTTTTTTTTTTGCACACTTAAATTTGGAGTGTAG [CACACA_site2345]	8.81 ± 0.45

Sequence	gcPBM binding intensity (ln)
TATATAAATAAATATACACACATATATAAATATACA [CACACA_site2982]	8.96 ± 0.4
TTTAATAATAATACTAGTACACATTCTTTATTATTT [XGTACX_site2671]	8.79 ± 0.52
TGAATTAAGATTTATTGTACATAATTTATACCATAT [XGTACX_site7034]	8.71 ± 0.45
TAAATTTATAGACACACACACATATAAATAAATATA [CACACA_site6530]	9.71 ± 0.22
AATATCTTAGTGGATACACACATATAAATGTGGATT [CACACA_site485]	8.88 ± 0.39
AAGATTTTCCTTGATAGTACACTTATGAAAATTTGT [XGTACX_site3047]	8.68 ± 0.38
ATATATTACGACTTCTGTACATAATATATAAAAGAA [XGTACX_site2353]	8.76 ± 0.42
TTTTTTTTTTTTTTTTTTTTTTTGTCTTATTTTTTT [GTGCAC_negctrl_site338]	8.37 ± 0.6
AAAGTAAAAAATCATAGTACACATTTAAATATATAT [XGTACX_site2323]	8.9 ± 0.56
TAATATATCAAATGAAGTACTCACATATACATAATA [XGTACX_site6051]	8.76 ± 0.36
TTTTTTAAATTATGTAGTACGATTCATTTTTTATAA [XGTACX_site1101]	8.46 ± 0.47
GGTATATATTTATAATGTACATATTCATATATATAA [XGTACX_site3291]	8.57 ± 0.35
CATCATCTTTTAAAGGTGCATAATAATATTGTTAAT	8.57 ± 0.42
ATGTTCTTTAAAACCACACACCCCCCAACCCCCCTC [CACACA_site2373]	10.1 ± 0.13
GTCTATTATTTTTGAAGTACAAAAATTTTAGTTAAA [XGTACX_site4708]	8.44 ± 0.43
AATATATTTAATCATACACACATTTATGTACCTATA [CACACA_site1718]	9.11 ± 0.41
TCGCCCTACAATTTGTTTATATATTAAATAAAATTT [CACACA_negctrl_site883]	8.57 ± 0.51
TGAAATTCCATAAAATGTACATATTAGTTTAATTCA [XGTACX_site4031]	8.38 ± 0.43
TTACAACATGAAAATGTGCACATATATATATATATA	9.89 ± 0.057
AAAAATAAATATATATGTACACATATGTATACAATA [XGTACX_site4692]	8.84 ± 0.4
